Test results from patent publication US9605027B2, “Polypeptides that bound to IL-23 receptor and inhibit binding of IL-23 and cell signaling thereof” (Medical Diagnostic Laboratories, LLC, priority 2011, dated 2017).
“Also recorded” adds a separate entry of the source. For some assays here: Not every detail of the peptide structures is certain; ends, links or a residue may be inferred. For some assays here: At least one structure is not confirmed: it was looked up by name or label, or the drawing left a doubt. Ends that are not written are not given here.

Tests used:
mouse IL-23R = target: T1, mouse IL-23R (Mus musculus, UniProt Q8K4B4); assay: Competitive mouse ELISA, mouse IL-23 binding to mouse IL-23R; details: mouse IL-23 / mouse IL-23R-Fc; read-out: IC50, Competitive ELISA in mouse system
T1 sequence (Q8K4B4 24-644): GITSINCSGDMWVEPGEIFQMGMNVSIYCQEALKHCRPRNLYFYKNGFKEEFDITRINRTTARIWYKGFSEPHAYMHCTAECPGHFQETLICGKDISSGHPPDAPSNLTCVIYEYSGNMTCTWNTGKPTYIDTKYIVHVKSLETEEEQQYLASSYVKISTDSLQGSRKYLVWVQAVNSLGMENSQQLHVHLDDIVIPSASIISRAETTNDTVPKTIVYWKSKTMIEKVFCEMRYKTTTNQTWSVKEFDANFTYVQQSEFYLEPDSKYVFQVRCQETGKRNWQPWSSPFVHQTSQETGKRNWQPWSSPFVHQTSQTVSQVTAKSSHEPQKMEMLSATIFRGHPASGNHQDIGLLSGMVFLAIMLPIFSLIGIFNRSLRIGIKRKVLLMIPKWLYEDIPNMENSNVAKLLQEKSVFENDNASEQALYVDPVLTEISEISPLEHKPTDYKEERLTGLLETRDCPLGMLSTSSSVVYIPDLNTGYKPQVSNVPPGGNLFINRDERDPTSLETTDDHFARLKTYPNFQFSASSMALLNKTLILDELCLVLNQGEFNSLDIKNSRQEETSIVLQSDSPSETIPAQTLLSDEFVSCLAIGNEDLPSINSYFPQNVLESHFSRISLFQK
From the text: In this study, we tested if the cyclic polypeptide no. 23.15, cyclic polypeptide no. 23.19 and the isolated polypeptide 23.15-Fc fusion protein could inhibit binding of mouse IL-23 to mouse IL-23R. Mouse IL-23 (p19 Gene Accession #: NM_031252; p40 Gene Accession #: NM_008352), the sequence of which is incorporated herein by reference. Mouse IL-23R (Gene Accession #: NM_144548), the sequence of which is incorporated herein by reference. To do so, we performed the Competitive ELISA.
FIG. 46 is a schematic depiction of the Competitive ELISA in mouse. Recombinant mouse IL-23R-Fc (2 μg/ml) was coated onto microtiter plates as a capture reagent. Mouse IL-23 and polypeptide or isolated peptide-Fc fusion protein were added to compete for binding to the immobilized mouse IL-23R-Fc. Mouse IL-23 that bound to mouse IL-23R-Fc was detected using biotinylated anti-p40 antibody (1:250). The bound anti-p40 antibody was detected using streptavidin-horseradish peroxidase (HRP) (1:500) and 100 μl/well of a tetramethylbenzidine (TMB) substrate was added to measure peroxidase activity. The color was measured at optical density (OD) 450nm. The color intensity was directly proportional to the amount of the bound mouse IL-23 protein.
The isolated polypeptide no. 23.15-Fc fusion protein, cyclic polypeptide no. 23.19 and polypeptide no. […] The IC50 values were calculated.

[1] = target: T2, Recombinant human IL-23R-Fc (Homo sapiens, UniProt Q5VWK5); assay: Competitive ELISA, IL-23 binding to IL-23R
T2 construct: has the protein portion between the 24 amino acid residue to 353 amino acid residue; purchased R&D Systems 1400-IR-050
T2 sequence (Q5VWK5 24-353): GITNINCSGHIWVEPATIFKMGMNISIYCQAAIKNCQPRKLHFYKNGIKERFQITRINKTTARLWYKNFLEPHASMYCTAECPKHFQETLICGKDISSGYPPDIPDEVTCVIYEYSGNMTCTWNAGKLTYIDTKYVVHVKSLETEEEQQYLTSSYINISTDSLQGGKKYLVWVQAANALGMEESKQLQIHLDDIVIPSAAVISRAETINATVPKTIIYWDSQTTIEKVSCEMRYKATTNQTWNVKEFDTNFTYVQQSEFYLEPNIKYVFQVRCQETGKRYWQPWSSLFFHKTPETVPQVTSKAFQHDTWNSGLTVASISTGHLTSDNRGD
Procedure: The novel polypeptides were tested for their ability to inhibit IL-23 using a Competitive ELISA. In such an assay, IL-23R/Fc fusion protein was immobilized on a solid support. In this instance, the solid support was a 96-well plate, but the support may be any support that is typically used for an ELISA. The novel polypeptide and IL-23 were allowed to compete for binding to the immobilized IL-23R/Fc fusion protein. IL-23 that bound to IL-23R-Fc was detected using biotinylated anti-p40 antibody. The bound anti-p40 antibody was detected using streptavidin-horseradish peroxidase (HRP) and a tetramethylbenzidine (TMB) substrate was added to measure peroxidase activity. The color was measured at optical density (OD) 450nm. The color intensity was directly proportional to the amount of the bound IL-23 protein. […] (See, FIG. 16.)
(§1) FIG. 12 is a schematic depiction of the Competitive ELISA. Recombinant human IL-23R-Fc (2 μg/ml) was coated onto microtiter plates as a capture reagent. IL-23 and polypeptides were added to compete for binding to the immobilized IL-23R-Fc. IL-23 that bound to IL-23R-Fc was detected using biotinylated anti-p40 antibody (1:250). The bound anti-p40 antibody was detected using streptavidin-horseradish peroxidase (HRP) (1:500) and 100 μl/well of a tetramethylbenzidine (TMB) substrate was added to measure peroxidase activity. The color was measured at optical density (OD) 450nm. (See, FIG. 12). The color intensity was directly proportional to the amount of the bound IL-23 protein.
as §1, with “Recombinant” for “FIG. 12 is a schematic depiction of the Competitive ELISA. Recombinant”, “IL-23R-Fc. 50 μg human IL-23 (Cat. No. HZ-1048) (Humanzyme, Chicago, Ill.) in the presence or absence of 100 μM peptides was added to the well and incubated at 4° C. overnight.” for “IL-23R-Fc.”, “450nm.” for “450nm. (See, FIG. 12).”

[2] = system: IL-23R mediated cell signaling in DB cells; assay: p-STAT3 immunoblot in DB cells stimulated with IL-23; assay type: cell-based, human; details: 30 ng/ml IL-23
IL-12Rβ2 = target: T3, IL-12Rβ2 (Homo sapiens, UniProt Q99665); assay: Competitive ELISA, IL-12 binding to IL-12Rβ2; details: IL-12 50 ng/well, plate coated with IL-12Rβ2 2 μg/ml
T3 sequence (Q99665 24-862): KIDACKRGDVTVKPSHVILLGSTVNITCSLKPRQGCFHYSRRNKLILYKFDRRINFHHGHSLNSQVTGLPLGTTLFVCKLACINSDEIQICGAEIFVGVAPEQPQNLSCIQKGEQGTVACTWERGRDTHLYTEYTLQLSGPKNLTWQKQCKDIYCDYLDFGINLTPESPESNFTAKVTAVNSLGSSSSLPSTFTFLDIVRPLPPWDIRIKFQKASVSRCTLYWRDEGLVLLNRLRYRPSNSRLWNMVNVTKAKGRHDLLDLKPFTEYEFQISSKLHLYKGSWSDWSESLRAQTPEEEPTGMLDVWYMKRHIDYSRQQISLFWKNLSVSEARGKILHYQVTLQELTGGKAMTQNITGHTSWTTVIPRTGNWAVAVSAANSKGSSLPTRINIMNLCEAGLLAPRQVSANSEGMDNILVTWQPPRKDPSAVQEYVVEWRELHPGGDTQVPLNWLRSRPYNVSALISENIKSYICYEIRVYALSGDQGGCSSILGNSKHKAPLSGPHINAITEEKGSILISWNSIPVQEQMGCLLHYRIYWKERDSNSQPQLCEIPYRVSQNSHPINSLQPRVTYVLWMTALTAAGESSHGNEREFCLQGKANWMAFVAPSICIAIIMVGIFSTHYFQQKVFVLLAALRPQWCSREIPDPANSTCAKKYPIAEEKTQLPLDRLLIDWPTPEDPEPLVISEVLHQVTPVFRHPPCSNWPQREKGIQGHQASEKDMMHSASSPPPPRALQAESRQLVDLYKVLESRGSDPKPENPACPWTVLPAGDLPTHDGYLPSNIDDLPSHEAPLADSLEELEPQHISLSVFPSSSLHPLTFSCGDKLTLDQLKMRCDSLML

CSCC[C@H](NC(=O)[C@H](C)N)C(=O)N[C@H](C(=O)N[C@@H](Cc1c[nH]c2ccccc12)C(=O)N[C@@H](CCC(N)=O)C(=O)N[C@@H](CC(=O)O)C(=O)N[C@@H](Cc1ccc(O)cc1)C(=O)N[C@@H](Cc1c[nH]c2ccccc12)C(=O)N[C@@H](CC(C)C)C(=O)N[C@@H](Cc1ccc(O)cc1)C(=O)NCC(=O)N[C@@H](CCCNC(=N)N)C(=O)O)[C@@H](C)O [23.15]
IC50 (mouse IL-23R): 50 µM

SGASWVQYWVQR [Polypeptide no. 1]
Optical density at 450 nm in competitive ELISA ([1]; 50 μg of human IL-23 and 50 μM peptide, IL-23 alone greater than 0.5): less than 0.2 | inhibition of IL-23 binding to IL-23R in Competitive ELISA ([1]; 100 μM synthetic peptide, 50 ng IL-23): inhibited its binding to IL-23R; also recorded: inhibited IL-23 binding to its receptor; also recorded: exhibited an inhibitory activity | inhibition of IL-23 binding to its receptor by modified polypeptides, Competitive ELISA ([1]; procedure of Example 6, compared with parent polypeptide): avid binding | relative p-STAT3/STAT3 level ([2]; 10 μM, 5 μM and 1 μM polypeptide): greater than 1.5 | relative level of p-STAT3/STAT3 ([2]; 50 μM polypeptide): ~0.6 | relative level of p-STAT3/STAT3 ([2]; 100 μM polypeptide): ~0.3 | dose dependence of inhibition of IL-23R cell signaling ([2]; 100, 50, 10, 5, 1 μM): inhibited IL-23R cell signaling activity in a dose-dependent manner; also recorded: dose-dependent effect | phospho-STAT3 level by immunoblot ([2]; DB cells, 100 μM polypeptide): reduced pSTAT3 levels; also recorded: undetectable; also recorded: completely inhibited phosphorylation of STAT3; also recorded: inhibited cell signaling | ratio of p-STAT3 to total STAT3 ([2]; DB cells, 100 μM polypeptide): reduced ratio of p-STAT3 to total STAT3 | inhibition of IL-12 binding to IL-12Rβ2 in Competitive ELISA (IL-12Rβ2): none of the polypeptides inhibited IL-12 from binding to its receptor; also recorded: no inhibitory activity
